Laboratory results taken from the RNAGym collection of RNA variant scans (doi:10.7554/elife.90254).
The source gives no read counts; variants with many changes may rest on few reads.

B1: OR4K15 (parent)
chain: GUUAACGGUCAUAGGCCAUGGAAACUAGGAGCACCAUUUCGCUGCCAGUGAAGAAAUGAACAAAGAAAAUCUGGGCCAGGCAGGCAUCAAAAGAAAUAGUCUUGCGCUCAACCAGAAAGUCUGUAAUCAUUUUAAGGGUA

Variants of: B1
Assay: self-cleavage, relative activity (ratio to wild type); higher = more cleavage; in vitro, sequencing; the parent is a self-cleaving ribozyme

Variant	self-cleavage
A92G A94G A96G	0.81
A23G U49A A51G U100C U108C	0
U3C A60G A69G	1.15
U72A A89G A114G	0.04
A24G A63G G79A A89G A95G U108C	0.01
A66G C71A G83A A95G	1.13
A55G A68G U122A	1.29
A60G A64G A78C U100A A116G	0.01
A62G A98G A110G	0.05
A24G A33U U100C	2.37
U43C A56G U102C A118G	1.28
A95G U120C U131C	0.45
U39C U102C C109U	0.56
U12C G99U A118G A140G	0.13
A5U A68G A118G	0.76
A47G U72C A90G A94G	0.09
A55U U87C U122A	0.64
A33U A55G A90G U120C	0.55
A52G A86G A134G	1
G41A A52G A56U A62G A82G C101A A110U	0.05
A63G U72C U87C	0.2

Variant	self-cleavage
U26G A33G U39C A129G	1.2
A33G A47G A64G A117G	0.76
A27C U72C G136A	0.07
G44A U87C U97C U100G U131C	0.79
A69G A82G A96G	0.12
C40A A52G A95G U139C	1.82
A54G A60G U130C	0.85
A22G A55G A78G	0.2
U2A U9C U26C	1.11
A55G A92G U102C A135U	0.86
U3C A63G A66G A96G U97C A116G A126C	0.05
A24G A27G A52G A56G A118G	0.64
U37G A114G U120C A126U	0.19
A5G U38A G136A	1.31
U57A U87A A91G	0.83
U9C A23G A36G	0.62
A11G C46U A91G U100C A110G	0.23
C17U A66G C85U U108C A117U	0.01
C35U U39A U49C A125G	0.31
U9C A51C A59U C76A A96G	0.12
A24G G83U A90G A94G A96G U132C	0.64

Variant	self-cleavage
A23G A63G A90G U120C	0.83
A52G A64G U120C A125G	0.25
U9C A11U G79U	0.19
A27G A54G A96G U97C	0.86
A27U U39C A82C	0.23
A62G A69U A116U U130A	0.27
A91G A98G U132C	0.18
A68G U100C A110G A126G	0.12
U43A A52G A95G	1.87
A91G U103C G137A	0.44
U72A U87C U124A	0.15
A62U A66G A110G	0.17
A11G U19C A47G U72A A116G	0.21
A24G A51G A62U	1.45
A30G A117G A129G U131C	1.56
A82G A91G U102A	0.37
A33U A36G A78G A86G A91G	0.05
A18G C46U A126G	1.13
G1A A47G U130C	0.59
U49C U72C A78U A96U A117G	0
U39A U43A A86U	1.92

Variant	self-cleavage
U3C A52G A63G	0.89
U49C A90G U108C U139C	0.01
U38A A126U U139C	1.87
A68G A69U U120A	2.03
A30C U108A G123A	0.02
C81A A90G C112U	0.02
A23G A96U A110C	0.33
A51G A94G A116G	0.17
A52G A59C U72C	0.15
U26C A30G A60U	1.42
A60G A63G U108A	0.03
U38C A54G U72C A82G	0.17
U2C G14U A51G A91G A110U U120C C121U A125G	0.32
U49C A67G A68G U70C U103A A135G	0.09
A24G A36G U49C	1.25
U43A A59G A63G U70A A134G	0.84
G8A A24G U49C A63G A135G A140G	1.74
U2G U38G A54G A56G	0.66
A91G A114U A116G	0.01
A4G A5G A55G	0.68
G1A A52U A135G	1.54
